Out of some 43,000 compounds screened, about 200 (0.47%) were called active. Roughly 12% stayed inconclusive and do not appear here. The call rests on the fitted dose curve; in most records, active means well fitted cell-killing curve with a large enough effect; inconclusive means small, poorly fitted or top-dose-only effect, or effect the other way; inactive means flat fitted curve, though single readings scatter. The list shows a part of the results.
Test: Cell viability qHTS assay in S16 Pmp22-F2sN cells; further: nearly all actives have a fitted effect of over 65% in size
Settings: S16 Pmp22-F2sN Schwann cells (luciferase reporters placed in the Pmp22 gene) viability, CellTiter-Glo, 24 h; series mostly up to 57.5 µM; activity change, negative = cytotoxicity: at the top concentration
Procedure, shortened: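 Luminescence from CellTiter-Glo, read by CCD camera after a 15 min room-temperature incubation, served as the viability signal. Reporter Schwann cells (S16 Pmp22-F2sN) had been treated with pin-transferred compounds for 24 h at 37C.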
On the % scale 0 is the no-effect control and ±100 the full control effect; potency means the concentration at half of the fitted maximal effect.

SMILES | activity change, negative = cytotoxicity | Potency
CCCCc1nn2c(=O)cc(COC(=O)c3ccc(NC(=O)c4cccs4)cc3)nc2s1 | inactive: 9.44% | –
CCN1CCSc2ccc(C(=O)NCc3cccc(F)c3)cc21 | inactive: -9.61% | –
O=C(Cn1c(=O)n(-c2ccc(Cl)cc2)c(=O)c2c3c(sc21)CCC3)c1ccc(F)cc1 | inactive: -2.57% | –
Cc1ccccc1NCc1cccn1-c1nnc(N2CCOCC2)s1 | inactive: -2.02% | –
O=[N+]([O-])c1cc(-c2nc(-c3ccccc3)no2)ccc1N1CCCC1 | inactive: -0.846% | –
COc1cccc(CNC(=O)CCc2nnc3n(CC(C)C)c(=O)c4ccccc4n23)c1 | inactive: 12% | –
Cc1ccc(NC(=O)CSc2nnc3[nH]c(=O)cc(C)n23)cc1Cl | inactive: -1.2% | –
CC(C)CC(=O)N1CC(=O)Nc2ccc(F)cc2C1c1ccccc1 (centres undefined) | inactive: 20.8% | –
CCC(Sc1nc2c(sc3ccccc32)c(=O)n1CCCC(=O)NC1CCCC1)C(=O)Nc1cccc(OC)c1 (centres undefined) | inactive: 16.9% | –
CC(C)OCCCn1c(SCC(=O)Nc2ccc(F)cc2)nc2c(sc3ccccc32)c1=O | inactive: 13.4% | –
Cc1nc2sccn2c(=O)c1S(=O)(=O)Nc1ccc(N2CCN(S(C)(=O)=O)CC2)cc1 | inactive: -19.4% | –
CCC(=O)N1c2ccccc2CC1C(=O)NCCN1CCN(c2cccc(C)c2C)CC1 (centres undefined) | inactive: 9.68% | –
O=C(CSc1nc(-c2ccccc2)[nH]c1-c1ccccc1)Nc1ccc2c(c1)OCO2 | – | active: 35.5 µM
CCOc1cc(C#N)c(NC(=O)c2cccc(S(=O)(=O)N3CCOCC3)c2)cc1OCC | inactive: 0.0399% | –
CCC(=O)N1CCc2cc(CNC(=O)Nc3ccccc3Cl)ccc21 | inactive: -10.2% | –
O=C(CCNS(=O)(=O)c1ccc2c(c1)CCCC(=O)N2)NCc1ccccc1Cl | inactive: 12.9% | –
COc1cccc(NC(=O)CN(C)S(=O)(=O)c2cccs2)c1 | inactive: 6.07% | –
COc1cc(CNC(=O)CSCc2nc3cccnc3n2C2CCCCC2)cc(OC)c1OC | inactive: -6.4% | –
Cc1ccc(C)c(NC(=O)CCc2nc(-c3ccc(C(C)(C)C)cc3)no2)c1 | inactive: -20.4% | –
CCCS(=O)(=O)N1CC(=O)N(c2ccccc2F)C(C)(C(=O)NC2CCCCCC2)C1 (centres undefined) | inactive: -2.09% | –
COc1ccc(CCNC(=O)c2cc(C)nc3c2c(C)nn3-c2ccccc2)cc1OC | inactive: 15.2% | –
CC1CCN(C(=O)CSc2nc(-c3ccc(C(C)C)cc3)no2)CC1 | inactive: -1.84% | –
CC(C(=O)NCc1ccccc1)N1Cc2ccccc2C1=O (centres undefined) | inactive: 13.9% | –
CCCc1ccc(OCC(=O)Nc2scc(-c3cccs3)c2C(=O)OC)cc1 | inactive: 7.95% | –
COc1ccc2c(c1)CC(C(=O)NCCN1CCN(c3cccc(Cl)c3)CC1)CO2 (centres undefined) | inactive: -17.5% | –

SMILES | activity change, negative = cytotoxicity | Potency
O=C(c1ccc2c(c1)N(Cc1ccc(F)cc1)CCS2)N1CCN(c2ccccc2)CC1 | inactive: -26.4% | –
Cc1ccc(CNC(=O)c2sc3nc4n(c(=O)c3c2C)CCCC4)cc1 | inactive: 6.13% | –
Cc1nc(Oc2ccccc2C)c2oc3ccccc3c2n1 | inactive: -18.4% | –
COc1ccc2nc3oc(C(=O)Nc4cccc(C(F)(F)F)c4)cc3cc2c1 | inactive: 14% | –
Cc1ccc2nc(-c3ccc(C)c(NC(=O)Cc4ccccc4)c3)oc2c1 | inactive: -14.7% | –
Cc1ccccc1CN1CCc2nc(N3CCN(c4ccccn4)CC3)ncc2C1 | inactive: 7.12% | –
Cc1c(C2=CCN(S(=O)(=O)c3ccc(Br)cc3)CC2)c2ccccc2n1CC(=O)N1CCCC1 | inactive: 3.2% | –
Cc1ccc(CNC(=O)CSc2c3c(nc4ccc(Cl)cc24)CCCC3)cc1 | inactive: 1.29% | –
Cc1cccc(Nc2nc(C)nc(N)c2S(=O)(=O)c2ccccc2)c1 | inactive: 21% | –
COc1ccc(N2CCN(CCCNC(=O)c3ccc4nc(CCc5ccccc5)oc4c3)CC2)cc1 | inactive: -27.8% | –
Cc1c(Cl)cccc1NC(=O)c1ccc(NC(=O)N2CCSc3ncccc32)cc1 | inactive: -4.81% | –
Cc1ccccc1NC(=O)CS(=O)(=O)c1cccc2nsnc12 | inactive: 2.23% | –
CCc1c(C)sc2c1CCN(C(=O)Nc1ccccc1C(=O)OC)C2c1ccc(F)cc1 (centres undefined) | inactive: 9.78% | –
CCNC(=O)c1c(NC(=O)COc2ccc(F)cc2)sc2c1CCCC2 | inactive: 6.74% | –
O=C(Nc1ccc(Br)cc1)N1CCC(CN2CCCC2)CC1 | inactive: 4.14% | –
Cc1ccc(NC(=O)c2ccc(=O)n(CC(=O)Nc3c(C)cc(C)cc3C)n2)cc1 | inactive: 3.65% | –
Cc1ccc(COc2ccc3oc(-c4ccccc4)c(C(=O)O)c3c2)cc1 | inactive: 4.27% | –
COc1ccc(/C=C/C(=O)N2CCC(c3nc4ccccc4o3)CC2)cc1OC | inactive: -7.33% | –
COc1ccc(OCC(=O)N2CCN(C(=O)c3cc(OC)c(OC)c(OC)c3)CC2)cc1 | inactive: 26.3% | –
CCOc1ccc(C2N3CC4(C(C)C)CN2CC(C(C)C)(C3)C4=O)cc1OC (centres undefined) | inactive: 9.18% | –
CCOc1ccccc1NC(=O)N(C)CCc1c(C)nn(CC)c1C | inactive: -2.27% | –
CC(C)(C)c1ccc(C(=O)NNc2ncnc3c2cnn3-c2ccccc2)cc1 | inactive: -3% | –
O=C(COc1ccccc1)NCC(c1cccs1)S(=O)(=O)c1ccc(Cl)cc1 (centres undefined) | inactive: 4.42% | –
COc1cccc(C(=O)Nc2ccc(-n3nncc3-c3ccc(Br)cc3)cc2)c1OC | inactive: -3.95% | –
